Reference: PubChem BioAssay AID1645887 (National Center for Advancing Translational Sciences (NCATS), 2021)
Several values for one entry are separate records, joined by “and”; a condition that tells them apart may be missing. Identical values can stand only once. In all, about 16,000 compounds went through this assay and about 40 (0.2%) were called active. Another 1% or so got no clear call; they are omitted. The call rests on the fitted dose curve; in most records, active means well fitted activation curve with a large enough effect; inconclusive means small, poorly fitted or top-dose-only effect, or another doubt; inactive means no such curve, though single readings can be large or run the other way. The list shows a part of the results.

biological target: Rap guanine nucleotide exchange factor 4 (Homo sapiens) (UniProt Q8WZA2); assay: Validation qHTS for agonist of cAMP-regulated guanine nucleotide exchange factor 4 (EPAC2); conditions: EPAC2 Rap1B BODIPY-GDP exchange, fluorescence; activation: stronger effect = higher value;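 further: exchange makes BODIPY-GDP fluorescence drop when released from Rap1B; series mostly up to about 150 µM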
Sequence of UniProt Q8WZA2 (Q8WZA2 whole entry, looked up): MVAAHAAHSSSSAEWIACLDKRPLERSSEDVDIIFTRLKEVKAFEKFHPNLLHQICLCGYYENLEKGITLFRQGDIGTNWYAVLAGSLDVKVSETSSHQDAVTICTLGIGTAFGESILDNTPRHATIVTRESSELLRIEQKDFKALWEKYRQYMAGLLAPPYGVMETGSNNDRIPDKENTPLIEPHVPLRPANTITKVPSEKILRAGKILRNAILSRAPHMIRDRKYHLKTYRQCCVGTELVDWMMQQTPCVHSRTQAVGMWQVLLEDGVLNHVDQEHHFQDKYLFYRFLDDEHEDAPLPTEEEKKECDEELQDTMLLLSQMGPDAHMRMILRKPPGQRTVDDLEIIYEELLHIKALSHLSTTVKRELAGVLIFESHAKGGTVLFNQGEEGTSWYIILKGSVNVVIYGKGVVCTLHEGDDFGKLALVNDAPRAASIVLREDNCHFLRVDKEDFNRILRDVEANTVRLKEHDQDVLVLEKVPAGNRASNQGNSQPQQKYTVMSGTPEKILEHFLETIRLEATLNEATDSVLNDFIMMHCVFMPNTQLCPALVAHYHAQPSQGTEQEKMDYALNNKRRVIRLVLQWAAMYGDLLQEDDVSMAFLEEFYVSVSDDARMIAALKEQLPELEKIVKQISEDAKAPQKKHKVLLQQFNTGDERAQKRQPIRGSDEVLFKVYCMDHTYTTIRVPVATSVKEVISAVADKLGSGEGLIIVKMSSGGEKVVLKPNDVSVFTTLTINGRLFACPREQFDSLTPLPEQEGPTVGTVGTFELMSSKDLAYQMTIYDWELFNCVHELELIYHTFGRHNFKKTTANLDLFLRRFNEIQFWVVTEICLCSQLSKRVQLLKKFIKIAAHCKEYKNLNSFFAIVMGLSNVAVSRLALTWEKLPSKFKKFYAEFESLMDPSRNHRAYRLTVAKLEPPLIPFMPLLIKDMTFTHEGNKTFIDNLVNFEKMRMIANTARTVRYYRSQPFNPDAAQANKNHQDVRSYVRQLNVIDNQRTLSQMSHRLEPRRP
Summary of the method: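 Signal normalized against 6.5 mM cAMP as agonist control. Mix of EPAC2 (100 nM), RAP1B-BODIPY-GDP (250 nM) and GDP (50 uM) was read kinetically at 480/540 nm, every 5 min over 30 min, after 5 min room-temperature incubation with compound.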
On the % scale 0 is the no-effect control and ±100 the full control effect.

Row | Structure (SMILES) | activation
1 | CCN1C[C@]2(C)CC[C@H](OC)[C@]34C5C[C@@H]6CC[C@@](O)(C5C(=O)O6)C(C13)[C@@H](OC(=O)c1ccccc1)C24 | inactive: -23.1%
2 | c1ccc(CN2CCNCC2)cc1 | inactive: 7.06%
3 | CN1C(=O)CN=C(c2ccccc2)c2cc(Cl)ccc21 | inactive: -3.58%
4 | CC(=O)[C@@]1(O)CC[C@H]2[C@@H]3CCC4=CC(=O)CC[C@]4(C)C3(F)[C@@H](O)C[C@@]21C (stereo partly drawn) | inactive: -4.33%
5 | Cc1cc([C@@H]2CCCN2C)on1 | inactive: 0.473%
6 | C[C@]12CC[C@H](O)CC1=CC[C@@H]1[C@@H]2CC[C@]2(C)C(=O)CC[C@@H]12 | inactive: -10.2%
7 | C/C=C(\C)C(=O)OC1CC(OC(C)=O)[C@@]2(C(=O)OC)COC3C2[C@@]12CO[C@](O)(C(=O)OC)C2[C@](C)(C12OC1(C)C1CC2OC2OC=C[C@]21O)C3O (stereo partly drawn) | inactive: -10.4%
8 | CC(Cc1ccccc1)NCc1ccccc1Cl (stereo not drawn) | inactive: 1.75%
9 | N#CC(O[C@@H]1OC(COC2OC(CO)C(O)C(O)[C@@H]2O)C(O)C(O)C1O)c1ccccc1 (stereo partly drawn) | inactive: -2.56%
10 | CC1(C)C(O)CC(O)[C@]2(C)C1CC(=O)[C@]1(C)C2CC[C@@]2(C)C(c3ccoc3)OC(=O)C3OC321 (stereo partly drawn) | inactive: 3.51%
11 | COc1ccc2c(c1OC)CN1CCc3cc4c(cc3C1C2)OCO4 (stereo not drawn) | inactive: 1.08%
12 | CCCC(C)(COC(N)=O)COC(=O)NC1CC1 (stereo not drawn) | inactive: -9.04%
13 | O=C(Oc1ccccc1)N1CCC[C@@]2(CCN(C(c3ccccc3)c3ccccc3)C2)C1 | inactive: -10.4%
14 | C[CH2][Hg][S]c1ccccc1C(=O)O | inactive: -10.5%
15 | O=C1CC2OCC=C3CN4CC[C@@]56c7ccccc7N1C5C2C3CC46 (stereo partly drawn) | inactive: -3.28%
16 | CCN(CC)C(=O)N[C@H]1C[C@@H]2c3cccc4[nH]cc(c34)C[C@H]2N(C)C1 | inactive: 19.8%
17 | O=C(Oc1ccccc1)N1CCC2(CC1)CCN(C(c1ccccc1)c1ccccc1)CC2 | inactive: -17.1%
18 | COP(=S)(OC)Oc1ccc(S(=O)(=O)N(C)C)cc1 | inactive: -7.33%
19 | Cc1nnc2n1-c1sc(CCC(=O)N3CCOCC3)cc1C(c1ccccc1Cl)=NC2 | inactive: 6.73% and inactive: -6.07%
20 | CC(N)[C@@H](O)c1ccccc1 (stereo partly drawn) | inactive: -6.76%
21 | Oc1cc(Cl)c(Cl)cc1Cl | inactive: -24.8%

Row | Structure (SMILES) | activation
22 | CN(C)CCc1c[nH]c2ccccc12 | inactive: -6.43%
23 | CC[N+]1(C)CCCC(OC(=O)C(O)(c2ccccc2)c2ccccc2)C1 (stereo not drawn) | inactive: -6.45%
24 | C/C=C(/C)C(=O)O[C@H]1C(C)=C2[C@H]([C@@H]1OC(=O)CCCCCCC)[C@@](C)(OC(C)=O)C[C@H](OC(=O)CCC)[C@@]1(O)[C@H]2OC(=O)[C@@]1(C)O | inactive: 8.82% and inactive: -105%
25 | Cc1o[nH]c(=O)c1C[C@H](N)C(=O)O | inactive: -13.7% and inactive: -13.6% and inactive: 3.9%
26 | Clc1ccc2c(c1)C(c1ccccc1)=NCc1nncn1-2 | inactive: 13.5%
27 | CC(C)Nc1nc(Cl)nc(NC(C)C)n1 | inactive: -7.23%
28 | c1ccc2c(c1)OCC(C1=NCCN1)O2 (stereo not drawn) | inactive: -0.494% and inactive: -15.7%
29 | CC1OC(O[C@@H]2C(O)CC(O[C@@H]3C(O)C[C@@H](OC4CC[C@]5(C)[C@H](CC[C@H]6[C@@H]5CC[C@]5(C)C(C7=CC(=O)OC7)C(O)C[C@@]65O)C4)OC3C)OC2C)CC(O)C1O (stereo partly drawn) | inactive: -13.2%
30 | Nc1ccc([N+](=O)[O-])cc1 | inactive: -7.23%
31 | CCCCSP(=O)(SCCCC)SCCCC | inactive: -5.02%
32 | CC(C)C(O)(C(=O)OC[C@@H]1CC[N+]2([O-])CCCC12)C(C)O (stereo partly drawn) | inactive: -12.6%
33 | O=S1OCC2C(CO1)C1(Cl)C(Cl)=C(Cl)C2(Cl)C1(Cl)Cl (stereo not drawn) | inactive: -9.8%
34 | N#Cc1c(Cl)c(Cl)c(Cl)c(C#N)c1Cl | inactive: -8.35%
35 | CC1O[C@@H](OC2CC[C@@]3(C=O)C4CC[C@]5(C)C(C6=CC(=O)OC6)CC[C@@]5(O)C4CC[C@]3(O)C2)C(O)C(O)C1O (stereo partly drawn) | inactive: -5.51%
36 | CCCN(CCC)[C@H]1CCc2c(F)ccc(O)c2C1 | inactive: -61.6%
37 | CC1C(=O)OC2C(O)C34C5OC(=O)[C@@]3(OC3OC(=O)[C@H](O)[C@]34C(C(C)(C)C)C5O)[C@]12O (stereo partly drawn) | inactive: 4.49%
38 | CCCC[N+]1(C)C2CC(OC(=O)[C@H](CO)c3ccccc3)CC1C1OC12 (stereo partly drawn) | inactive: -40.6%
39 | c1ccc(C2CNCc3ccccc32)cc1 (stereo not drawn) | inactive: 2.51%
40 | CCCCCC[C@H]1C(=O)O[C@H](C)[C@H](NC(=O)c2cccc(NC=O)c2O)C(=O)O[C@@H](C)[C@@H]1OC(=O)CC(C)C | inactive: -36.4%
41 | C=C(C)[C@H]1C2C(=O)O[C@H]1[C@H]1OC(=O)[C@@]34O[C@@H]3C[C@]2(O)[C@@]14C | inactive: 11% and inactive: 4.18%
42 | CN(C)CCc1c[nH]c2cccc(O)c12 | inactive: 7.04%

Row | Structure (SMILES) | activation
43 | N#Cc1ccc(CN2CCCC3(CCN(C(=O)Oc4ccccc4)CC3)C2)cc1 | inactive: 2.19%
44 | O=c1ccc2cc(O[C@@H]3O[C@H](CO)[C@@H](O)[C@H](O)[C@H]3O)c(O)cc2o1 | inactive: -23.9%
45 | COc1cc2c(cc1O)C[C@H]1c3c(cc(OC)c(O)c3-2)CCN1C | inactive: 10.8%
46 | CC(C)NC(C)Cc1ccc(I)cc1 (stereo not drawn) | inactive: -14.3% and inactive: -15.6%
47 | O=C(Oc1ccccc1)N1CCC2(CCN(Cc3ccccc3)CC2)CC1 | inactive: -16.2%
48 | CC(C)=CCCC1(C)C=Cc2c(O)c3c(c(CC=C(C)C)c2O1)OC12C(=CC4CC1C(C)(C)OC2(C/C=C(/C)C(=O)O)C4=O)C3=O (stereo not drawn) | inactive: -53.4%
49 | O=C1c2ccccc2-c2cccc3cccc1c23 | inactive: 24.1%
50 | CSCC[C@H](NC(=O)[C@H](Cc1ccccc1)NC(=O)CNC(=O)CNC(=O)[C@@H](N)Cc1ccc(O)cc1)C(=O)O | inactive: 5.13%
51 | CNc1ccc2oc(C[C@H]3O[C@]4(CC[C@H]3C)O[C@H]([C@H](C)C(=O)c3ccc[nH]3)[C@H](C)C[C@H]4C)nc2c1C(=O)O | inactive: -15.1%
52 | CNCC/C=C/c1cccnc1 | inactive: -0.407%
53 | C[C@](O)(CS(=O)(=O)c1ccc(F)cc1)C(=O)Nc1ccc(C#N)c(C(F)(F)F)c1 | inactive: 13%
54 | NCC(O)c1ccc(O)cc1 (stereo not drawn) | inactive: -0.724% and inactive: -8.94%
55 | COC(=O)N1CCN(C(=O)Cc2ccc(Cl)c(Cl)c2)C(CN2CCCC2)C1 (stereo not drawn) | inactive: 1.27% and inactive: 1.21%
56 | COc1ccc2[nH]cc(CCN(C)C)c2c1 | inactive: -8.91%
57 | CC1C(=O)OC2C1CC[C@@]1(C)C=CC(=O)[C@@]3(C)O[C@@]213 (stereo partly drawn) | inactive: -14.8%
58 | Cc1nnc2n1-c1sc(Br)cc1C(c1ccccc1Cl)=NC2 | inactive: 8.86%
59 | N#Cc1nn(-c2c(Cl)cc(C(F)(F)F)cc2Cl)c(N)c1S(=O)C(F)(F)F (stereo not drawn) | inactive: -36.3% and inactive: -27.9% and inactive: -24.1%
60 | O=C(Oc1ccccc1)N1CCC[C@@]2(CCN(Cc3ccccc3)C2)C1 | inactive: -1.45%
61 | CN1CC[C@@H]2CN3CCc4cccc(c43)[C@H]2C1 | inactive: 2.5%
62 | COc1cc(CC(C)N)c(OC)cc1Br (stereo not drawn) | inactive: -6.33% and inactive: 10.2%
63 | C[N+](C)(C)CC(=O)[O-] | inactive: -3.82%

Row | Structure (SMILES) | activation
64 | N#CC1(N2CCCCC2)CCCCC1 | inactive: -19.5%
65 | CNC1[C@@H](O)C(OC2C(N)C[C@H](N)[C@@H](O[C@@H]3OC(C(C)O)C(O)C(O)C3N)C2O)OC[C@]1(C)O (stereo partly drawn) | inactive: -10.3%
66 | C[N+]1(C)C2CCC1CC(OC(=O)C(CO)c1ccccc1)C2 (stereo not drawn) | inactive: -11.5% and inactive: -12.1%
67 | CCCN(CCC)C1Cc2cc(OC)c(OC)cc2C1 | inactive: -14.7% and inactive: -4.86% and inactive: 5.64%
68 | CC1CCC(C(C)C)C(OC(=O)c2ccccc2N)C1 (stereo not drawn) | inactive: -10.3%
69 | O=c1c2ccccc2[se]n1-c1ccccc1 | inactive: 7.23% and inactive: 3.37% and inactive: -15%
70 | C[C@H]1[C@H]2Cc3ccc(O)cc3[C@]1(C)CCN2CCc1ccccc1 | inactive: -6.19%
71 | c1ccc2c(c1)Nc1ccccc1S2 | inactive: 2.83%
72 | O=C(O)c1nn(Cc2ccc(Cl)c(Cl)c2)c2ccccc12 | inactive: -13%
73 | C[C@]12CC[C@H]3[C@@H](CC=C4C[C@@H](O)CC[C@@]43C)[C@@H]1CC[C@@H]2O | inactive: 8.58%
74 | CC(C)(C)C(O)C(Oc1ccc(Cl)cc1)n1cncn1 (stereo not drawn) | inactive: -11.3%
75 | Nc1ccc(Cl)cc1 | inactive: 25.8%
76 | CC(C)CN1CCCC2(CCN(C(=O)c3ccncc3)CC2)C1 | inactive: -7.81%
77 | CN[C@@H](C)[C@H](O)c1ccccc1 | inactive: -16.3%
78 | O=C1/C(=C/c2ccc(N(CCCl)CCCl)cc2)Cc2ccccc21 | inactive: -1.94%
79 | C=CCN1CC[C@]23CCCCC2[C@H]1Cc1ccc(O)cc13 (stereo partly drawn) | inactive: -20.1%
80 | CC[C@]1(O)CC[C@H]2[C@@H]3CCC4=CCCC[C@@H]4[C@H]3CC[C@@]21C | inactive: -11.2%
81 | S=C=Nc1cccc(C2(N3CCCCC3)CCCCC2)c1 | inactive: -1.36%
82 | CNC(=O)CSP(=S)(OC)OC | inactive: -18.3%
83 | CCNc1nc(Cl)nc(NC(C)C)n1 | inactive: -2.41%
